The source of these data is the antibiotic and cytotoxicity screens of Wong et al. (2023).

The list shows a part of the results.

One assay relates to HSkMC. Kind of assay: cytotoxicity call (relative viability < 0.9). To be noted: 10 µM.
Another assay has as its system HepG2. Kind of assay: cytotoxicity call (relative viability < 0.9). The following applies: 10 µM.
For a further assay, the system named is S. aureus RN4220. Kind of assay: growth inhibition call (relative growth <= 0.2). To be noted: 50 µM.

Regarding `C[C@H](CO)N1C[C@H](C)[C@@H](CN(C)Cc2ccc3c(c2)OCO3)Oc2ccc(NC(=O)Nc3ccc(C(F)(F)F)cc3)cc2C1=O`, the cytotoxicity call in the assay on HSkMC and in the assay with HepG2 was “active” in each case. Moreover, the growth inhibition call in the assay on S. aureus RN4220 is “inactive”.
`C[C@H]1CN([C@@H](C)CO)C(=O)c2cc(NC(=O)Cc3cn(C)c4ccccc34)ccc2O[C@H]1CN(C)S(=O)(=O)c1cn(C)cn1`: the cytotoxicity call with HSkMC and in the assay on HepG2 was “inactive” in each case. Also, the growth inhibition call in the assay on S. aureus RN4220 was “inactive”.
`O=[N+]([O-])c1ccc(O)c2ncccc12`: the cytotoxicity call in the assay with HSkMC is “inactive”. Further, the cytotoxicity call in the assay with HepG2 is “active”. Further, in the assay with S. aureus RN4220, the growth inhibition call is “inactive”.
Regarding `C[C@@H]1CN([C@@H](C)CO)C(=O)c2c(c3ccccc3n2C)-c2ccccc2CO[C@@H]1CN(C)Cc1ccc(F)cc1`, the cytotoxicity call with HSkMC and in the assay with HepG2 was “inactive” each time. Also, the growth inhibition call in the assay with S. aureus RN4220 was “inactive”.
Take `C/C=C(/C)C(=O)O[C@H]1[C@@H](OC(C)=O)[C@@]2(CO)[C@@H](O)C[C@@]3(C)C(=CC[C@H]4[C@@]5(C)CC[C@@H](O[C@H]6O[C@H](C(=O)O)[C@@H](O[C@H]7O[C@@H](CO)[C@@H](O)[C@@H](O)[C@@H]7O)[C@@H](O)[C@@H]6O[C@H]6O[C@@H](CO)[C@@H](O)[C@@H](O)[C@@H]6O)[C@@](C)(CO)[C@@H]5CC[C@]43C)[C@@H]2CC1(C)C`: the cytotoxicity call with HSkMC and in the assay with HepG2 was “active” in each case. The growth inhibition call in the assay with S. aureus RN4220 was “inactive”.
As to `C[C@H](CO)N1C[C@H](C)[C@H](CN(C)C(=O)Cc2ccncc2)Oc2cc(C#CC3CC3)ccc2S1(=O)=O`, the cytotoxicity call in the assay with HSkMC and in the assay on HepG2 was “inactive” throughout. Further, the growth inhibition call in the assay with S. aureus RN4220 is “inactive”.
In the case of `Cc1noc(C)c1S(=O)(=O)N(C)C[C@H]1Oc2ccc(NC(=O)CCN3CCOCC3)cc2CC(=O)N([C@H](C)CO)C[C@@H]1C`, the cytotoxicity call in the assay with HSkMC and with HepG2 was “inactive” each time. The growth inhibition call in the assay with S. aureus RN4220 is “inactive”.
Turning to `C[C@@H]1CN([C@@H](C)CO)C(=O)Cc2cc(NS(=O)(=O)c3cn(C)cn3)ccc2O[C@@H]1CN(C)CC1CC1`, the cytotoxicity call with HSkMC and with HepG2 was “inactive” in each case. For the same molecule, the growth inhibition call in the assay with S. aureus RN4220 is “inactive”.
For the molecule `COc1ccc(CN(C)C[C@@H]2OCCCC[C@H](C)Oc3ccc(NC(=O)Nc4ccccc4)cc3C(=O)N([C@H](C)CO)C[C@H]2C)cc1`, the cytotoxicity call in the assay on HSkMC and with HepG2 was “inactive” each time. Besides, the growth inhibition call with S. aureus RN4220 was “inactive”.
Turning to `C[C@@H]1CN([C@@H](C)CO)C(=O)c2cc(NC(=O)Cn3cnnn3)ccc2O[C@H]1CN(C)C(=O)Nc1ccc(C(F)(F)F)cc1`, the cytotoxicity call in the assay on HSkMC (human skeletal muscle cells) and with HepG2 was “inactive” in each case. Also, in the assay on S. aureus RN4220, the growth inhibition call is “inactive”.
